The values below come from PubChem BioAssay AID1645882 (National Center for Advancing Translational Sciences (NCATS), 2021).

The whole screen tested about 16,000 compounds, of which about 120 (0.75%) were called active. Inconclusive results (about 4%) are left out. Calls follow the shape of the dose curve; as a rule, active = well fitted inhibition curve with a large enough effect; inconclusive = small, poorly fitted or top-dose-only effect; inactive = no such curve, though single readings can be large or run the other way. The list shows a part of the results. *1 amine or outer side, *2 acyl side, *3 side chain or, on linkers, in order; H or OH if unused. Where a SMILES comes first, the peptide text is derived from it. Bridges are numbered along the chain shown (N, C = ends). [ ]: non-standard residue; d: D form. The star is where a group is joined. X5 = NC1=N[C@@H]([C@H](N[*:1])C(=O)[*:2])C[C@H](O)N1; ΔAla(Z-3-ureido) = NC(=O)N/C=C(\N)C(=O)O; β3hOrn = NCCC[C@H](N)CC(=O)*; Dap = NC[C@H](N)C(=O)O

Chain of UniProt O95398 (O95398 whole entry, looked up): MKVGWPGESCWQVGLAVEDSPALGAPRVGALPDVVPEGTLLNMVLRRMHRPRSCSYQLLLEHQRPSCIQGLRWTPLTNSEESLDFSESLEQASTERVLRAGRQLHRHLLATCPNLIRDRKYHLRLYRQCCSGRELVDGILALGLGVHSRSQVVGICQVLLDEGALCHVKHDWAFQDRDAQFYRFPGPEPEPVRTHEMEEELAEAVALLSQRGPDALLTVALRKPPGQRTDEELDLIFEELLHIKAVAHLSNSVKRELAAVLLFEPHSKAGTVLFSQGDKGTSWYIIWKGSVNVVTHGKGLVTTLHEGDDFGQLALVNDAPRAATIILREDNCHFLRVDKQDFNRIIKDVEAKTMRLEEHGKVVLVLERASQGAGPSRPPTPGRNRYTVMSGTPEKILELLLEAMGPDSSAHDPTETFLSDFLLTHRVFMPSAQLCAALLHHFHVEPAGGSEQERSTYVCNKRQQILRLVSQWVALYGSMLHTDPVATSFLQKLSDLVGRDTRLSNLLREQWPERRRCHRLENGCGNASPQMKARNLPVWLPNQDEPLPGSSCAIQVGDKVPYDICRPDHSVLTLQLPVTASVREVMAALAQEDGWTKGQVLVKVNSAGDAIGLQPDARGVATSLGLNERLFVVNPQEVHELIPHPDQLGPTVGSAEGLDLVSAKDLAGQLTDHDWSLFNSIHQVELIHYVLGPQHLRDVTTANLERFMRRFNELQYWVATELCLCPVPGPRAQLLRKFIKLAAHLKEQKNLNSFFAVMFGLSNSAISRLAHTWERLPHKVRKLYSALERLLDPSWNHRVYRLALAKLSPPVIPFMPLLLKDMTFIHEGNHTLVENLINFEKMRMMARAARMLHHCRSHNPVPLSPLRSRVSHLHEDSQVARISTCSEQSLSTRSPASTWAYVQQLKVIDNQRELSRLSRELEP

The target of the experiment is Rap guanine nucleotide exchange factor 3 (Homo sapiens) (UniProt O95398). Briefly: Validation qHTS for antagonist of cAMP-regulated guanine nucleotide exchange factor 3 (EPAC1).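 Also: plate controls were DMSO for no effect and ATA control for full effect; nearly all actives have a fitted effect of over 75% in size.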 The conditions noted are these: EPAC1 Rap1B-BODIPY-GDP exchange, fluorescence; series mostly up to 150 µM; activity change, negative = inhibition: at the top concentration. In outline:
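Nucleotide exchange followed as fluorescence loss when BODIPY-GDP leaves Rap1B (480 nm excitation, 540 nm emission), read at 5 min intervals over 30 min. Reaction: 100 nM EPAC1, 250 nM RAP1B-BODIPY-GDP, 50 uM GDP; ATA and DMSO define normalization.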
For orientation: qHTS replaces the single test concentration by a dilution series.
Turning to `CNC(=O)Oc1ccc2c(c1)[C@]1(C)CCN(C)[C@@H]1N2C`, the activity change, negative = inhibition entry was “inactive”. For `COc1cc(/C=C/C(=O)CC(=O)/C=C/c2ccc(O)c(OC)c2)ccc1O` the value was “inactive”; for `Cc1cccc(CNc2cc(-c3cccc(C#N)c3)ncn2)c1`, inactive: 0.998%. Take `COc1ccccc1-c1ccnc(-n2ncc(C(=O)NCc3cccc(C)n3)c2C)n1`: the “activity change, negative = inhibition” value was inactive: 25.8%. Take `CO/N=C(\C(=O)N[C@@H]1C(=O)N2C(C(=O)O)=C(CSc3cnns3)CS[C@H]12)c1csc(N)n1`: the “activity change, negative = inhibition” value is inactive: 1.19%. Take `CC(C)CN(C[C@@H](O)[C@H](Cc1ccccc1)NC(=O)O[C@H]1CO[C@H]2OCC[C@H]21)S(=O)(=O)c1ccc(N)cc1`: the “activity change, negative = inhibition” value is inactive: 7.47%. Under `COc1cccc(-c2nc3cc4c(cc3cc2CN(C(=O)c2cc(C)nn2C)C2CC2)CCC4)c1OC` stands inactive: 0.505%; under `CN(C)C(=O)c1ccc(-c2ccc3ncnc(N(C)C)c3c2)cc1`, inactive: 6.79%; under `CCCCCc1ccc(-c2cn(Cc3ccc([N+](=O)[O-])cc3)nn2)cc1`, inactive: -11.4%.

`COCCn1c(=O)c(CCc2ccccc2)nc2cnc(N3CCN(C)CC3)nc21`: the “activity change, negative = inhibition” value is inactive: 8.29%. In the case of `O=C1CCN(CCc2ccccc2)CCN1CCO`, the “activity change, negative = inhibition” value is inactive: -23.2%. In the case of `CC1CC2(C)Oc3ccccc3C3OCC1(COC(=O)Nc1ccccc1)C(C)C32` (stereo not drawn), the “activity change, negative = inhibition” value is inactive: -5.79%. Under `CO[C@H]1C[C@@H]2CC[C@@H](C)[C@@](O)(O2)C(=O)C(=O)N2CCCC[C@H]2C(=O)O[C@H]([C@H](C)C[C@@H]2CC[C@@H](O)[C@H](OC)C2)CC(=O)[C@H](C)C=C(C)[C@@H](O)[C@@H](OC)C(=O)[C@H](C)C[C@H](C)/C=C/C=CC=C1C` stands inactive: -27%; under `CN(Cc1ccco1)c1ncncc1-c1ccccc1C(F)(F)F`, inactive: 4.28%; under `O=C1C[C@@H]2c3c(cccc3CN1Cc1ccc(Br)cc1)C[C@@H](O)[C@H]2O`, inactive: 15.3%.

Take `Cn1cc(-c2nc3cncnc3n(Cc3ccc(F)cc3)c2=O)c2ccccc21`: the “activity change, negative = inhibition” value was inactive: 5.48%. In the case of `NCC[C@H](O)C(=O)N[C@@H]1C[C@H](N)[C@@H](O[C@H]2O[C@H](CN)[C@@H](O)[C@H](O)[C@H]2O)[C@H](O)[C@H]1O[C@H]1O[C@H](CO)[C@@H](O)[C@H](N)[C@H]1O`, the “activity change, negative = inhibition” value was inactive: -12%. Under `N#Cc1cccc(-c2ccc3ncnc(NCCN4CCOCC4)c3c2)c1` stands inactive: 5.59%.

Take `CN(C)c1ccc(/C=C/c2ccnc3c(-c4ccccc4)cccc23)cc1`: the “activity change, negative = inhibition” value is inactive: 17.8%. For `CSc1ccccc1C(=O)NCc1nc(-c2cccc(NC(=O)c3ccoc3C)c2)oc1C` the value was inactive: -6.38%; for `CC(C)C1CCC(C(=O)N[C@H](Cc2ccccc2)C(=O)O)CC1` (stereo partly drawn), inactive: -6.33%; for `CCCCN1C[C@H](Cc2ccccc2)[C@@H](CC(=O)NCc2ccc(OC)cc2)C1=O`, inactive: 7.35%. Turning to `COc1cccc(Cn2c(=O)c(CCc3ccccc3)nc3cnc(N4CCN(C)CC4)nc32)c1`, the “activity change, negative = inhibition” value was inactive: 6.89%. Turning to `COc1ccc(CNc2ncncc2-c2ccccc2C(F)(F)F)c(OC)c1`, the “activity change, negative = inhibition” value was inactive: -21%. On to `COc1ccc(-n2c(CCNC(=O)c3ccc(-c4cccc(F)c4)cc3)nnc2SC)cc1`, for which the “activity change, negative = inhibition” value was inactive: -24%.

For the molecule `NC(=O)COCCN1CCN(C(c2ccccc2)c2ccc(Cl)cc2)CC1` (stereo not drawn), the “activity change, negative = inhibition” value is inactive: 33.1%. For `C[C@H]1C(O)[C@@]23CCC4C5(C=[N+](CCO)C[C@]4(C)CCC5)C2C[C@@H]1C3` (stereo partly drawn) the value was inactive: 15.8%; for `COC(=O)N1CCC2(CC1)CCN(c1ccccc1)CC2`, inactive: 15.6%. Under `CCCCCCN(CCCCCC)C(=O)Cc1c(-c2ccc(Cl)cc2)[nH]c2ccc(Cl)cc12` stands “inactive”; under `CC1(C)S[C@@H]2[C@H](NC(=O)[C@H](N)c3ccccc3)C(=O)N2[C@H]1C(=O)OCOC(=O)[C@@H]1N2C(=O)C[C@H]2S(=O)(=O)C1(C)C`, inactive: 14.8%; under `O=C1c2cccc3c2[C@H](CCC3)CN1[C@@H]1CN2CCC1CC2`, inactive: -3.77%. Under `COc1cccc(Nc2ncc3nc(-c4ccc(Cl)cc4)c(=O)n(CCC#N)c3n2)c1` stands inactive: 37.4%; under `O=C(c1cc(C(F)(F)F)cc(C(F)(F)F)c1)N1CCC[C@@]2(CCN(c3ccncc3)C2)C1`, inactive: 14.7%; under `COc1ccc(C(C)C(=O)c2ccc(O)cc2O)cc1` (stereo not drawn), inactive: -24.8%.

For the molecule `NC1(C(=O)O)CCc2cc(C(=O)O)ccc21` (stereo not drawn), the activity change, negative = inhibition entry was “inactive”. On to `CCCCCCCCCCC(CO)CCCCCCCC` (stereo not drawn), for which the “activity change, negative = inhibition” value was inactive: 19.5%. Regarding `NC(CO)C(=O)NNCc1ccc(O)c(O)c1O` (stereo not drawn), the activity change, negative = inhibition result was “inactive”. Under `C=C1CCC2C(CC2(C)C)C(=O)CCC1O` (stereo not drawn) stands inactive: 12.6%. With `Nc1nc2c(c(=O)[nH]1)N(C=O)C(CNc1ccc(C(=O)N[C@@H](CCC(=O)O)C(=O)O)cc1)CN2` (stereo partly drawn), the “activity change, negative = inhibition” value was inactive: 18.2% [at 75.8 µM]. For `COc1ccccc1CCNc1ncnc2sc(C(=O)N3CCCN(C=O)CC3)c(C)c12` the value was inactive: -6.89%; for `COCC(=O)Nc1cc(Sc2ccccc2)ccc1N=C(NC(=O)OC)NC(=O)OC`, inactive: -2.96%. Turning to `COc1cccc(Cn2c(=O)cnc3cnc(N(C)C)nc32)c1`, the “activity change, negative = inhibition” value is inactive: 8.36%. As for `C[C@]12CCC3c4ccc(O)cc4CCC3C1CCC2OC(=O)CCC1CCCC1` (stereo partly drawn), the “activity change, negative = inhibition” value is inactive: 0.0163%. For `Cc1nc2cnc(N3CCOCC3)nc2n(C[C@H]2CCCO2)c1=O` the value was inactive: 13.4%; for `COc1ccc2c(c1OC)C(=O)N1c3ccccc3C(=O)OC21` (stereo not drawn), inactive: 1.5%. For the molecule `Cc1cccc(C(=O)NCN2CCN(c3ccccc3C#N)CC2)c1`, the activity change, negative = inhibition entry was “inactive”. Under `NCCC[C@H](N)CC(=O)N[C@H]1CNC(=O)[C@H]([C@H]2C[C@H](O)NC(N)=N2)NC(=O)/C(=C/NC(N)=O)NC(=O)[C@H](CO)NC(=O)[C@H](CO)NC1=O` (β3hOrn-[Dap]SS[ΔAla(Z-3-ureido)][X5]; lactam 1-C) stands inactive: 15.5%; under `CS(=O)(=O)Nc1cccc(-c2cncnc2-n2ccnc2)c1`, inactive: 8.36%.
